{"source": "the BET-seq Pho4 binding data (Le et al. 2018)", "note": "The list shows a part of the results. Values were computed here from the reads of four pooled replicates and scatter widely."}
{"target": "T1, Pho4 (S. cerevisiae) (UniProt P07270)", "T1 sequence": "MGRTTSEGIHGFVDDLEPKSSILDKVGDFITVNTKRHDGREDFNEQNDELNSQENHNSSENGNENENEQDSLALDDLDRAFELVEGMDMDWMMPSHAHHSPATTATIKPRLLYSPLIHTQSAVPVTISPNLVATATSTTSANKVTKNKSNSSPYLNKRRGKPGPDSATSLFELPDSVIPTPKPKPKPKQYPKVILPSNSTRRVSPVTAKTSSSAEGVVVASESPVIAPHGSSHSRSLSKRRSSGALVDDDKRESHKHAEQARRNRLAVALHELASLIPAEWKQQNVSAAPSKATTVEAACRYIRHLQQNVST", "experiment": "relative binding free energy (BET-seq); higher = weaker binding", "conditions": "reference: library average", "units": {"relative binding free energy": "kcal/mol"}}
{"sequence": "GGGTTCACGTGCCGGA", "relative binding free energy": 0.21}
{"sequence": "TTGTGCACGTGCGGGT", "relative binding free energy": -0.02}
{"sequence": "GGCGTCACGTGTGATA", "relative binding free energy": 0.18}
{"sequence": "TATGTCACGTGGTGTA", "relative binding free energy": -0.1}
{"sequence": "TTTTTCACGTGCGGCA", "relative binding free energy": 0.3}
{"sequence": "GTGTACACGTGTAATG", "relative binding free energy": 0.2}
{"sequence": "CTAGACACGTGGATTT", "relative binding free energy": 0.21}
{"sequence": "TATGTCACGTGGCGTG", "relative binding free energy": 0.08}
{"sequence": "GGACGCACGTGAGTGG", "relative binding free energy": 0.11}
{"sequence": "TGGTTCACGTGGAGGG", "relative binding free energy": 0.22}
{"sequence": "ACGTACACGTGCGTGT", "relative binding free energy": -0.01}
{"sequence": "CGCGTCACGTGTGGGC", "relative binding free energy": 0.11}
{"sequence": "AATGGCACGTGGTCTT", "relative binding free energy": -0.16}
{"sequence": "GCGTGCACGTGTGGTC", "relative binding free energy": 0.16}
{"sequence": "GTGTGCACGTGTGGAT", "relative binding free energy": 0.1}
{"sequence": "GGTTTCACGTGGCCAT", "relative binding free energy": 0.3}
{"sequence": "GGGTGCACGTGAGAAG", "relative binding free energy": 0.38}
{"sequence": "TGTGTCACGTGGCGAT", "relative binding free energy": 0.05}
{"sequence": "GGTGGCACGTGACGGG", "relative binding free energy": 0.08}
{"sequence": "GTATTCACGTGGTTTC", "relative binding free energy": 0.32}
{"sequence": "AAATGCACGTGGTTAG", "relative binding free energy": -0.19}
{"sequence": "GTTGTCACGTGTCGTA", "relative binding free energy": 0.09}
{"sequence": "AGGGTCACGTGGGTAG", "relative binding free energy": 0.02}
{"sequence": "TCGAGCACGTGTGGGG", "relative binding free energy": -0.06}
{"sequence": "GGCAACACGTGAGGGG", "relative binding free energy": 0.19}
{"sequence": "ACTTGCACGTGGGGTG", "relative binding free energy": -0.19}
{"sequence": "GTGTCCACGTGGTAAT", "relative binding free energy": 0.16}
{"sequence": "TGTGTCACGTGTCCGA", "relative binding free energy": 0.06}
{"sequence": "TATTGCACGTGGCTTT", "relative binding free energy": -0.03}
{"sequence": "AGTTTCACGTGGTCCT", "relative binding free energy": 0.27}
{"sequence": "AGGAGCACGTGAGCGG", "relative binding free energy": 0.13}
{"sequence": "TGGAACACGTGAAGGT", "relative binding free energy": 0.19}
{"sequence": "AGGAGCACGTGCTGTG", "relative binding free energy": -0.15}
{"sequence": "TTTAGCACGTGCTTTT", "relative binding free energy": -0.04}
{"sequence": "CGTGTCACGTGATGAT", "relative binding free energy": 0.26}
{"sequence": "ATGTTCACGTGTGTGA", "relative binding free energy": 0.24}
{"sequence": "TTGCTCACGTGGGGCG", "relative binding free energy": 0.11}
{"sequence": "AATTCCACGTGTAGGT", "relative binding free energy": 0.18}
{"sequence": "TGGACCACGTGAATGT", "relative binding free energy": 0.34}
{"sequence": "GTTGACACGTGTTAAG", "relative binding free energy": 0.09}
{"sequence": "GTTAGCACGTGGAGGT", "relative binding free energy": -0.01}
{"sequence": "TGTAACACGTGAGATA", "relative binding free energy": 0.24}
{"sequence": "GGGATCACGTGTAAAG", "relative binding free energy": 0.22}
{"sequence": "TTGATCACGTGATTCG", "relative binding free energy": 0.38}
{"sequence": "AGTTACACGTGGCTGG", "relative binding free energy": 0.09}
{"sequence": "AGTTACACGTGAAGAA", "relative binding free energy": 0.42}
{"sequence": "TGGTCCACGTGCTGGT", "relative binding free energy": -0.01}
{"sequence": "GAGGGCACGTGTCTGT", "relative binding free energy": -0.21}
{"sequence": "GGTAACACGTGGAAGA", "relative binding free energy": 0.15}
{"sequence": "GGCGGCACGTGTTTAA", "relative binding free energy": -0.01}
{"sequence": "TTAGTCACGTGGCTGC", "relative binding free energy": 0.06}
{"sequence": "TCCGTCACGTGAATGG", "relative binding free energy": 0.41}
{"sequence": "AACTGCACGTGATGGA", "relative binding free energy": 0.15}
{"sequence": "TATAGCACGTGGTGCT", "relative binding free energy": -0.25}
{"sequence": "ATACGCACGTGAGTTG", "relative binding free energy": 0.02}
{"sequence": "GTGGGCACGTGAATTG", "relative binding free energy": 0.2}
{"sequence": "GCTTGCACGTGGATGC", "relative binding free energy": 0.16}
{"sequence": "TGTCGCACGTGATCGT", "relative binding free energy": 0}
{"sequence": "TGGGACACGTGAGTTC", "relative binding free energy": 0.35}
{"sequence": "AGGGGCACGTGCGGTG", "relative binding free energy": -0.16}
{"sequence": "TGTCGCACGTGGCGAG", "relative binding free energy": -0.13}
{"sequence": "AAGGTCACGTGTTAAA", "relative binding free energy": 0.27}
{"sequence": "AGGAGCACGTGTCGGT", "relative binding free energy": -0.01}
{"sequence": "GCGGTCACGTGTGGAC", "relative binding free energy": 0.19}
{"sequence": "GTGATCACGTGTTAAG", "relative binding free energy": 0.06}
{"sequence": "GTGTGCACGTGTATTA", "relative binding free energy": -0.01}
{"sequence": "GTCTGCACGTGGAGGT", "relative binding free energy": -0.02}
{"sequence": "ATATCCACGTGGAGGG", "relative binding free energy": -0.04}
{"sequence": "AATGTCACGTGATTCA", "relative binding free energy": 0.25}
{"sequence": "AGCATCACGTGTATGT", "relative binding free energy": 0.21}
{"sequence": "ATAGGCACGTGCGGCG", "relative binding free energy": -0.27}
{"sequence": "TGTCTCACGTGGGCGG", "relative binding free energy": 0.15}
{"sequence": "GTTAGCACGTGATTCT", "relative binding free energy": 0.13}
{"sequence": "CGAGACACGTGGGTGT", "relative binding free energy": -0.25}
{"sequence": "GATATCACGTGAGGGG", "relative binding free energy": 0.47}
{"sequence": "GGGCTCACGTGGGGGT", "relative binding free energy": 0.1}
{"sequence": "GTAAGCACGTGTCGAG", "relative binding free energy": 0.01}
{"sequence": "GTTATCACGTGGAGAG", "relative binding free energy": 0.18}
{"sequence": "TTATACACGTGGGTGG", "relative binding free energy": -0.08}
{"sequence": "GTCCGCACGTGGGTGA", "relative binding free energy": -0.16}
{"sequence": "GGGTGCACGTGCAGTA", "relative binding free energy": 0.02}
{"sequence": "ATGCTCACGTGAGCGT", "relative binding free energy": 0.28}
{"sequence": "ATTGTCACGTGTAGAT", "relative binding free energy": 0.17}
{"sequence": "GGTACCACGTGAGGGG", "relative binding free energy": 0}
{"sequence": "TGGGCCACGTGATGCG", "relative binding free energy": 0.04}
{"sequence": "TCTAGCACGTGGTATT", "relative binding free energy": -0.18}
{"sequence": "TCTTTCACGTGAGGTC", "relative binding free energy": 0.39}
{"sequence": "GTCTACACGTGGTGTT", "relative binding free energy": 0.02}
{"sequence": "GTTAGCACGTGCGGTA", "relative binding free energy": 0.01}
{"sequence": "AAGTGCACGTGGAGGC", "relative binding free energy": -0.07}
{"sequence": "GTTTTCACGTGTAAAA", "relative binding free energy": 0.21}
{"sequence": "TAGGACACGTGAGGTT", "relative binding free energy": 0.16}
{"sequence": "GTCATCACGTGGTGTA", "relative binding free energy": 0.05}
{"sequence": "TGGATCACGTGGGTTG", "relative binding free energy": 0.06}
{"sequence": "GAGTTCACGTGGCGTG", "relative binding free energy": 0.25}
{"sequence": "GGAAGCACGTGGGCCG", "relative binding free energy": -0.08}
{"sequence": "TATGGCACGTGCTTGA", "relative binding free energy": -0.26}
{"sequence": "GGGGTCACGTGCGGCG", "relative binding free energy": 0.04}
{"sequence": "TTATGCACGTGTCGCG", "relative binding free energy": -0.04}
{"sequence": "TAGTTCACGTGAATTC", "relative binding free energy": 0.46}
{"sequence": "TCGTGCACGTGTGAGT", "relative binding free energy": 0.1}
{"sequence": "GGCGGCACGTGGGTGA", "relative binding free energy": -0.27}
{"sequence": "CGTTTCACGTGCTGGG", "relative binding free energy": 0.25}
{"sequence": "TTCGCCACGTGTGGGT", "relative binding free energy": -0.09}
{"sequence": "TTGTTCACGTGTGGAG", "relative binding free energy": 0.27}
{"sequence": "TAGGGCACGTGGGAAT", "relative binding free energy": 0}
{"sequence": "AGGTTCACGTGAGGGC", "relative binding free energy": 0.29}
{"sequence": "GTATACACGTGGGAGT", "relative binding free energy": -0.08}
{"sequence": "TGCCGCACGTGGTGTT", "relative binding free energy": -0.09}
{"sequence": "TGCGTCACGTGAGCAG", "relative binding free energy": 0.34}
{"sequence": "TATGTCACGTGTTCGG", "relative binding free energy": 0.18}
{"sequence": "TCTGTCACGTGTAGTA", "relative binding free energy": 0.12}
{"sequence": "ATGGCCACGTGCGTGG", "relative binding free energy": -0.25}
{"sequence": "GGGTACACGTGAGTTA", "relative binding free energy": 0.32}
{"sequence": "TGTGCCACGTGTGTCT", "relative binding free energy": -0.03}
